B1: PhoQ; a variant is named by its letters at X, in order, P23837 (parent)
chain: MKKLLRLFFPLSLRVRFLLATAAVVLVLSLAYGMVALIGYSVSFDKTTFRLLRGESNLFYTLAKWENNKLHVELPENIDKQSPTMTLIYDENGQLLWAQRDVPWLMKMIQPDWLKSNGFHEIEADVNDTSLLLSGDHSIQQQLQEVREDDDDAEMTHSVAVNVYPATSRMPKLTIVVVDTIPVELKSSYMVWSWFIYVLSANLLLVIPLLWVAAWWSLRPIEALAKEVRELEEHNRELLNPATTRELTSLVRNLNRLLKSERERYDKYRTTLTDLTHSLKTPLXXLQXXLRSLRSEKMSVSDAEPVMLEQISRISQQIGYYLHRASMRGGTLLSRELHPVAPLLDNLTSALNKVYQRKGVNISLDISPEISFVGEQNDFVEVMGNVLDNACKYCLEFVEISARQTDEHLYIVVEDDGPGIPLSKREVIFDRGQRVDTLRPGQGVGLAVAREITEQYEGKIVAGESMLGGARMEVIFGRQHSAPKDE

This is one part of the list.

In the experiment the parent is B1. The experiment in a line: enrichment ratio after two sorts for PhoP signalling (ratio (wild type AVST 3.29)); higher = more functional. The settings on record: with PhoP (E. coli).
With VMAP, the enrichment ratio is no more than 0.25.
Regarding ADDP, the enrichment ratio is no more than 0.25.
For the variant HCDW, the enrichment ratio is no more than 0.25.
As to SYRC, the enrichment ratio was no more than 0.25.
Under AHWK stands no more than 0.25; under SYMV, 0.557.
For GEAT the value was 14.1.
For YHCL, the enrichment ratio was no more than 0.25.
As for LFRR, the enrichment ratio is no more than 0.25.
Turning to FDRA, the enrichment ratio was no more than 0.25.
Consider FHQQ, for which the enrichment ratio was no more than 0.25.
For the variant AFPI, the enrichment ratio is no more than 0.25.
Under FACK stands no more than 0.25.
For FGGR the value was no more than 0.25; for MHQN, no more than 0.25.
Regarding FKPG, the enrichment ratio was no more than 0.25.
For ISPA the value was no more than 0.25.
Under EGYE stands no more than 0.25.
For PEGL the value was no more than 0.25; for LFQL, no more than 0.25; for YQAK, no more than 0.25.
GRKR: the enrichment ratio was no more than 0.25.
Under YNCW stands no more than 0.25; under RETT, no more than 0.25.
Under LANF stands no more than 0.25; under FYLF, no more than 0.25.
Under VHRL stands 0.637.
With TCQA, the enrichment ratio amounted to 16.2.
Under WWLY stands no more than 0.25; under IRQT, no more than 0.25; under VICY, no more than 0.25.
On to TLRM, for which the enrichment ratio was no more than 0.25.
With APIV, the enrichment ratio was no more than 0.25.
With QRID, the enrichment ratio is no more than 0.25.
For FTQS the value was no more than 0.25; for HADQ, no more than 0.25; for EQGY, no more than 0.25.
Under KHIG stands no more than 0.25.
As to KICV, the enrichment ratio is no more than 0.25.
For NCAP, the enrichment ratio was no more than 0.25.
In the case of MCSY, the enrichment ratio is no more than 0.25.
Regarding NYAI, the enrichment ratio was no more than 0.25.
For the variant YLTM, the enrichment ratio came out at 0.267.
In the case of LWNF, the enrichment ratio was no more than 0.25.
For DNGY the value was no more than 0.25.
Under FYDY stands no more than 0.25.
For VQPC the value was no more than 0.25; for LEVF, no more than 0.25; for WWTA, no more than 0.25.
Take DDLE: the enrichment ratio is no more than 0.25.
For IRKG the value was no more than 0.25.
Under EKFE stands no more than 0.25.
Regarding VLAH, the enrichment ratio was no more than 0.25.
Under NEIQ stands no more than 0.25.
On to NLEG, for which the enrichment ratio is no more than 0.25.
For LKYW the value was no more than 0.25.
For LGDE the value was no more than 0.25.
For GLIM the value was 3.84; for DGTP, no more than 0.25; for DDAH, no more than 0.25.
For the variant RERT, the enrichment ratio is no more than 0.25.
Under FYQN stands no more than 0.25; under SQRC, no more than 0.25; under GHEW, no more than 0.25.
With EDLR, the enrichment ratio was no more than 0.25.
For HAMI the value was no more than 0.25; for MEAA, no more than 0.25; for GQPC, no more than 0.25.
As to DMTS, the enrichment ratio is no more than 0.25.
For FAMR the value was no more than 0.25; for WVSR, no more than 0.25; for FGHQ, no more than 0.25.
With NEPR, the enrichment ratio was no more than 0.25.
Under NKSC stands no more than 0.25.
For IMGR the value was no more than 0.25; for GSTC, 0.618; for PQDI, no more than 0.25.
On to QCDS, for which the enrichment ratio is no more than 0.25.
Under GKKV stands no more than 0.25; under DLCE, no more than 0.25; under FWDA, no more than 0.25.
NGQF: the enrichment ratio was no more than 0.25.
Under FVNY stands no more than 0.25; under RGER, no more than 0.25; under QSAQ, 5.
For DKGA the value was no more than 0.25.
YTRN: the enrichment ratio was no more than 0.25.
DVEL: the enrichment ratio was no more than 0.25.
On to MQQP, for which the enrichment ratio is no more than 0.25.
As to WWHR, the enrichment ratio is no more than 0.25.
On to HAIM, for which the enrichment ratio was no more than 0.25.
Under HSMA stands no more than 0.25; under WESR, no more than 0.25; under MFTY, no more than 0.25.
Take MVGW: the enrichment ratio was no more than 0.25.
Under KSYT stands no more than 0.25; under WFTW, no more than 0.25; under WYLW, no more than 0.25.
For DCYT the value was no more than 0.25.
Regarding WKSF, the enrichment ratio is no more than 0.25.
As to RHNR, the enrichment ratio is no more than 0.25.
With DSKS, the enrichment ratio was 0.423.
For SPIK, the enrichment ratio was no more than 0.25.
Under LSPA stands no more than 0.25.
For YMEV the value was no more than 0.25; for TSSI, 19.5; for TAIR, no more than 0.25.
In the case of EFFG, the enrichment ratio is no more than 0.25.
As for FDMS, the enrichment ratio was no more than 0.25.
Under MSYG stands 5.99; under GGHA, no more than 0.25; under AIWA, no more than 0.25.
For KLEC the value was no more than 0.25; for HWCF, no more than 0.25.
Consider DVNT, for which the enrichment ratio was no more than 0.25.
Regarding DPYL, the enrichment ratio is no more than 0.25.
Under FPRW stands no more than 0.25; under NNRD, no more than 0.25; under QVSK, 0.663.
On to LLNT, for which the enrichment ratio was no more than 0.25.
Under DTAV stands no more than 0.25; under MLYD, no more than 0.25; under RICS, no more than 0.25.
For GYHY the value was no more than 0.25; for LSPR, no more than 0.25.
For ACPA the value was no more than 0.25.
Regarding QLCK, the enrichment ratio is no more than 0.25.
For the variant RHVP, the enrichment ratio was no more than 0.25.
For WPHI, the enrichment ratio is no more than 0.25.
For DCEW the value was no more than 0.25; for RNKI, no more than 0.25.
For the variant SATV, the enrichment ratio turned out to be 5.18.
In the case of RGSC, the enrichment ratio was no more than 0.25.
For VSHE, the enrichment ratio was no more than 0.25.
Regarding LHGR, the enrichment ratio is no more than 0.25.
With KFEL, the enrichment ratio was no more than 0.25.
As to VTNV, the enrichment ratio is no more than 0.25.
Under HQVQ stands no more than 0.25.
Regarding KYAL, the enrichment ratio is no more than 0.25.
Under MAKC stands no more than 0.25; under NIYK, no more than 0.25.
Regarding KELC, the enrichment ratio is no more than 0.25.
For LYTF the value was no more than 0.25; for RYHK, no more than 0.25; for HFVP, no more than 0.25.
For VRPA the value was no more than 0.25.
As to WEVH, the enrichment ratio is no more than 0.25.
For EQMY the value was no more than 0.25; for ITPA, no more than 0.25; for PLDD, no more than 0.25.
For the variant HCCM, the enrichment ratio is no more than 0.25.
For TNWY, the enrichment ratio is no more than 0.25.
Consider FACL, for which the enrichment ratio came to 3.63.
Under PFCK stands no more than 0.25; under AFRW, no more than 0.25.
Under EPPE stands no more than 0.25.
For LIRM the value was no more than 0.25; for PEDG, no more than 0.25; for KLSY, no more than 0.25.
As to RCAR, the enrichment ratio was no more than 0.25.
As to LFFI, the enrichment ratio was no more than 0.25.
For FSAQ the value was no more than 0.25; for PWND, no more than 0.25.
For TSCN the value was 26.6; for FMLN, no more than 0.25; for NFFE, no more than 0.25.
Under HHMH stands no more than 0.25; under EVRT, no more than 0.25.
As to WCWW, the enrichment ratio was no more than 0.25.
Under AVVR stands 3.58; under FTAV, no more than 0.25; under EHWP, no more than 0.25.
For KTAH the value was no more than 0.25; for DGYA, no more than 0.25; for DPMY, no more than 0.25.
Under SESI stands 12.7; under LLAI, no more than 0.25.
Regarding NCSR, the enrichment ratio is no more than 0.25.
For WNIW the value was no more than 0.25; for HWVA, no more than 0.25; for VYVE, no more than 0.25.
For MYGA, the enrichment ratio was no more than 0.25.
Under PDFH stands no more than 0.25; under PGGS, 1.11; under SAWK, no more than 0.25.
For DRPT the value was no more than 0.25; for DGRV, no more than 0.25.
For FWLH the value was no more than 0.25.
Regarding KAVC, the enrichment ratio is no more than 0.25.
As to YLFS, the enrichment ratio was no more than 0.25.
Under DCNQ stands no more than 0.25; under FLMT, no more than 0.25; under VPLN, no more than 0.25.
As to MQCP, the enrichment ratio is no more than 0.25.
MAPE: the enrichment ratio is no more than 0.25.

(Values after a collection of fitness landscapes (doi:10.1126/science.1257360).)
